Lines with a small IC50 respond at low doses; where the fit passes the top or lowest dose, that dose stands as a limit. AUC, from the same fit, is the share of area under the viability curve across the 256-fold dose range; the more sensitive the line, the further below 1. For part of these data: A top dose marked as inferred was calculated from the reported fits. For part of these data: Where an entry number is given, a second screen of the drug exists; the two often differ.
What was measured:
Test in all cases: Viability of human cancer cell lines after 72 h of drug (GDSC screen)
Tamoxifen = compound: CC/C(=C(\c1ccccc1)c1ccc(OCCN(C)C)cc1)c1ccccc1 [Tamoxifen]; details: top dose 5 µM
Procedure: (§1)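 Human cancer cell lines in 384-well plates, medium with 10% serum, drug for 72 h over a 256-fold dose range (nine 2-fold or five 4-fold steps up to the top dose). Adherent lines were fixed and stained with the nucleic acid dye Syto60, suspension lines read with resazurin; signal relative to control wells, capped at 0 and 100%. One two-parameter sigmoid per drug and line, fitted in a mixed model over all curves with the slope shared within a line.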

VNLG/124 = compound: CCCC(=O)OCc1ccc(OC(=O)/C=C(C)/C=C/C=C(C)/C=C/C2=C(C)CCCC2(C)C)cc1 [VNLG/124]; details: top dose 5.12 µM; top dose inferred
Procedure: as §1

Elesclomol = compound: CN(NC(=O)CC(=O)NN(C)C(=S)c1ccccc1)C(=S)c1ccccc1 [Elesclomol]; details: top dose 0.2 µM; top dose inferred
Procedure: as §1

HG-5-88-01 = compound: COc1cc(N2CCC(C(N)=O)CC2)ccc1Nc1nc(N)c(Cl)c(Nc2ccccc2S(=O)(=O)C(C)C)n1 [HG-5-88-01]; details: top dose 10 µM; top dose inferred
Procedure: as §1

Bleomycin = compound: Cc1c(N)nc([C@H](CC(N)=O)NC[C@H](N)C(N)=O)nc1C(=O)N[C@H](C(=O)N[C@H](C)[C@@H](O)[C@H](C)C(=O)N[C@H](C(=O)NCCc1nc(-c2nc(C(=O)NCCC[S+](C)C)cs2)cs1)[C@@H](C)O)[C@@H](OC1OC(CO)C(O)C(O)C1OC1OC(CO)C(O)C(OC(N)=O)C1O)c1cnc[nH]1 [Bleomycin]
Procedure: as §1

Masitinib = compound: Cc1ccc(NC(=O)c2ccc(CN3CCN(C)CC3)cc2)cc1Nc1nc(-c2cccnc2)cs1 [Masitinib]; details: top dose 20 µM
Procedure: as §1

LAQ824 = compound: O=C(/C=C/c1ccc(CN(CCO)CCc2c[nH]c3ccccc23)cc1)NO [LAQ824]; details: top dose 1.024 µM; top dose inferred
Procedure: as §1

OSI-930 = compound: O=C(Nc1ccc(OC(F)(F)F)cc1)c1sccc1NCc1ccnc2ccccc12 [OSI-930]; details: top dose 10.24 µM
Procedure: as §1

BX-912 = compound: O=C(Nc1cccc(Nc2ncc(Br)c(NCCc3cnc[nH]3)n2)c1)N1CCCC1 [BX-912]; details: top dose 10.24 µM; top dose inferred
Procedure: as §1

NSC-87877 = compound: O=S(=O)(O)c1ccc2cc(N=Nc3cc(S(=O)(=O)O)c4cccnc4c3O)ccc2c1 [NSC-87877]; details: top dose 16 µM; top dose inferred
Procedure: as §1

[1] = top dose 50 µM, screen: GDSC drug entry 1378, top dose inferred
[2] = top dose 64 µM, screen: GDSC drug entry 190

Cell Line	AUC (Tamoxifen)	IC50 (Tamoxifen) [µM]	AUC (VNLG/124)	IC50 (VNLG/124) [µM]	AUC (Elesclomol)	IC50 (Elesclomol) [µM]	AUC (HG-5-88-01)	IC50 (HG-5-88-01) [µM]	AUC (Bleomycin; [1])	IC50 (Bleomycin; [1]) [µM]	AUC (Bleomycin; [2])	IC50 (Bleomycin; [2]) [µM]	AUC (Masitinib)	IC50 (Masitinib) [µM]	AUC (LAQ824)	IC50 (LAQ824) [µM]	AUC (OSI-930)	IC50 (OSI-930) [µM]	AUC (BX-912)	IC50 (BX-912) [µM]	AUC (NSC-87877)	IC50 (NSC-87877) [µM]
SKN (uterus, adherent)	0.942	> 5	0.957	> 5.12	0.361	0.00475	0.965	> 10	0.568	4.98	0.826	49.9	0.819	14.5	0.609	0.136	0.944	> 10.2	0.838	9.08	0.964	> 16
SLVL (B-cell lymphoma, suspension)	0.96	> 5	0.975	> 5.12	0.859	0.182	0.943	> 10	0.639	7.78	0.266	0.823	0.862	18.9	0.318	0.0191	0.977	> 10.2	0.725	2.92	0.983	> 16
SNG-M (endometrium, adherent)	0.951	> 5	0.986	> 5.12	0.806	0.0992	0.889	> 10	0.305	0.899	0.246	0.755	0.836	12.9	0.39	0.0322	0.942	> 10.2	0.817	5.57	0.985	> 16
SNU-387 (liver, adherent)	0.982	> 5	0.984	> 5.12	0.531	0.0154	0.758	3.92	0.694	11.9	0.33	1.25	0.9	> 20	0.499	0.0638	0.984	> 10.2	0.552	0.907	0.979	> 16
SNU-C1 (large intestine, suspension)	0.927	> 5	0.965	> 5.12	0.948	> 0.2	0.759	5.11	0.969	> 50	0.873	> 64	0.955	> 20	0.616	0.154	0.949	> 10.2	0.93	> 10.2	0.97	> 16
SR (lymphoid neoplasm, suspension)	0.895	> 5	0.982	> 5.12	0.603	0.0233	0.028	< 0.0391	0.106	0.196	0.033	< 0.25	0.534	1.53	0.197	0.00916	0.872	8.09	0.396	0.342	0.979	> 16
SU8686 (pancreas, adherent)	0.984	> 5	0.984	> 5.12	0.468	0.0101	0.876	> 10	0.829	36.4	0.374	1.72	0.89	> 20	0.445	0.0444	0.971	> 10.2	0.95	> 10.2	0.916	> 16
SW48 (large intestine, adherent)	0.982	> 5	0.979	> 5.12	0.831	0.126	0.722	2.65	0.405	1.72	0.203	0.532	0.975	> 20	0.664	0.183	0.964	> 10.2	0.614	1.32	0.982	> 16
SW626 (ovary, adherent)	0.975	> 5	0.984	> 5.12	0.712	0.0563	0.904	> 10	0.654	9.08	0.36	1.52	0.872	> 20	0.425	0.0384	0.796	5.84	0.971	> 10.2	0.984	> 16
SW684 (fibrosarcoma, adherent)	0.98	> 5	0.982	> 5.12	0.943	> 0.2	0.973	> 10	0.798	37.9	0.981	> 64	0.961	> 20	0.818	0.962	0.971	> 10.2	0.982	> 10.2	0.983	> 16
SW948 (large intestine, adherent)	0.98	> 5	0.977	> 5.12	0.981	> 0.2	0.97	> 10	0.739	21.2	0.923	> 64	0.894	> 20	0.537	0.0843	0.926	> 10.2	0.881	> 10.2	0.972	> 16
SW982 (soft tissue, adherent)	0.967	> 5	0.947	> 5.12	0.449	0.00905	0.886	> 10	0.227	0.487	0.209	0.541	0.87	19.6	0.472	0.0535	0.983	> 10.2	0.985	> 10.2	0.985	> 16
SW1271 (small cell lung carcinoma, adherent)	0.981	> 5	0.984	> 5.12	0.671	0.0405	0.981	> 10	0.75	18.6	0.255	0.701	0.907	> 20	0.635	0.161	0.971	> 10.2	0.845	9.15	0.984	> 16
SW1710 (bladder, adherent)	0.968	> 5	0.985	> 5.12	0.403	0.00673	0.96	> 10	0.543	4.1	0.202	0.506	0.917	> 20	0.238	0.0108	0.984	> 10.2	0.901	> 10.2	0.97	> 16
SW1783 (glioma, adherent)	0.988	> 5	0.988	> 5.12	0.869	0.155	0.979	> 10	0.576	4.94	0.178	0.49	0.893	19.8	0.548	0.0851	0.982	> 10.2	0.943	> 10.2	0.976	> 16
TE-1 (oesophagus, adherent)	0.965	> 5	0.981	> 5.12	0.696	0.0521	0.711	2.93	0.471	2.55	0.573	6.7	0.945	> 20	0.301	0.015	0.941	> 10.2	0.903	> 10.2	0.972	> 16
TE-5 (oesophagus, adherent)	0.974	> 5	0.982	> 5.12	0.529	0.0152	0.88	> 10	0.783	24.6	0.582	6.93	0.97	> 20	0.448	0.0453	0.978	> 10.2	0.951	> 10.2	0.984	> 16
TE-8 (oesophagus, adherent)	0.981	> 5	0.984	> 5.12	0.459	0.00957	0.983	> 10	0.576	5.13	0.211	0.524	0.948	> 20	0.166	0.00558	0.961	> 10.2	0.867	> 10.2	0.976	> 16
TE-9 (oesophagus, adherent)	0.978	> 5	0.981	> 5.12	0.794	0.0966	0.897	> 10	0.608	6.25	0.72	17.3	0.962	> 20	0.613	0.132	0.975	> 10.2	0.968	> 10.2	0.987	> 16
TE-12 (oesophagus, suspension)	0.974	> 5	0.978	> 5.12	0.513	0.0136	0.87	> 10	0.65	8.95	0.284	0.844	0.908	> 20	0.486	0.0579	0.927	> 10.2	0.814	7.17	0.981	> 16
TGBC1TKB (biliary tract, adherent)	0.988	> 5	0.989	> 5.12	0.676	0.0386	0.94	> 10	0.916	> 50	0.805	32.1	0.926	> 20	0.636	0.151	0.983	> 10.2	0.989	> 10.2	0.984	> 16
TGW (neuroblastoma, adherent)	0.99	> 5	0.958	> 5.12	0.565	0.0183	0.888	8.47	0.986	> 50	0.822	30.7	0.89	17.3	0.473	0.0547	0.968	> 10.2	0.822	4.9	0.991	> 16
TK10 (kidney, adherent)	0.973	> 5	0.976	> 5.12	0.689	0.0476	0.942	> 10	0.674	10.7	0.406	2.09	0.896	> 20	0.416	0.0359	0.979	> 10.2	0.889	> 10.2	0.982	> 16
TK (B-cell lymphoma, suspension)	0.987	> 5	0.989	> 5.12	0.781	0.0755	0.944	> 10	0.985	> 50	0.932	> 64	0.884	18.2	0.406	0.0362	0.981	> 10.2	0.935	> 10.2	0.989	> 16

— the supplement of paper PMC4967469
